These are yes or no findings as the source states them, for the method shown. Binding seen in cells or lysates may run through a third protein. Some results given as binding are weak or reduced against the parent protein; the word gives no strength. Sequences can lack the tags named with a protein.
T1: SMS1‐V5 (C-terminal V5-tagged human sphingomyelin synthase 1) (human) (UniProt Q86VZ5)
T1 sequence: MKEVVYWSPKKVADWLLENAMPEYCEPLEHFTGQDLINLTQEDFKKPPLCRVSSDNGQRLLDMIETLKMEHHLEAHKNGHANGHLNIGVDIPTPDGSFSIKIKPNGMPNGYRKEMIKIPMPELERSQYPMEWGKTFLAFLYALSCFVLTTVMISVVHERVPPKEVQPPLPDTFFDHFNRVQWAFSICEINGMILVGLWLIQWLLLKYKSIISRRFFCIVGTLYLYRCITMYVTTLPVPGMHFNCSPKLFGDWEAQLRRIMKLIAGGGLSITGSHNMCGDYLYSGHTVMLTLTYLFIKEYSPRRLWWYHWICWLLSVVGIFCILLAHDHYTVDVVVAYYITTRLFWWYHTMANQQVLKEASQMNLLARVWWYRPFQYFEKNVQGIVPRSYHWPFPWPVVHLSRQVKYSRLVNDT

T2: SMS2‐V5 (C-terminal V5-tagged human sphingomyelin synthase 2) (human) (UniProt Q8NHU3)
T2 sequence: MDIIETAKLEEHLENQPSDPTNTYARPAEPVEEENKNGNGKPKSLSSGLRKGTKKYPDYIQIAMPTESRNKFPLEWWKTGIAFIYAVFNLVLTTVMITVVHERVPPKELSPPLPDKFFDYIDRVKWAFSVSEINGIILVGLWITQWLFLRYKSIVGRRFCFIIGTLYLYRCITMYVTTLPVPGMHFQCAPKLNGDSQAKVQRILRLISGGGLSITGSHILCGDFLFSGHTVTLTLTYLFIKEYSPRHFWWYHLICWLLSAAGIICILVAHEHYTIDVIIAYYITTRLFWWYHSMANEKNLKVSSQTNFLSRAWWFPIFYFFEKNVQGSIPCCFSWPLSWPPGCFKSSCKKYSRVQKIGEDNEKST

T3: SMSr‐V5 (C-terminal V5-tagged human sphingomyelin synthase-related protein) (human) (UniProt Q96LT4)
T3 sequence: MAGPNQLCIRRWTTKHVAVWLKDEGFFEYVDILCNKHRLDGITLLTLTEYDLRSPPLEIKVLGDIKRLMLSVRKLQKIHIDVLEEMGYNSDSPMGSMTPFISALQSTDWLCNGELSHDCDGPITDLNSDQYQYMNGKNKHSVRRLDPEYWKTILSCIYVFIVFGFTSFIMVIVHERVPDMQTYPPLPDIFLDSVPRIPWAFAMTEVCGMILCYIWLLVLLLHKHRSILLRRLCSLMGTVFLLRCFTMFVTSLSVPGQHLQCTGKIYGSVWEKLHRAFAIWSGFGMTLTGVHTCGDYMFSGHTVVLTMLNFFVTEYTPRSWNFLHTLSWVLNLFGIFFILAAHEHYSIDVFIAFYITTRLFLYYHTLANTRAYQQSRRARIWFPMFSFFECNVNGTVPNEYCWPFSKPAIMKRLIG


Tests used:
Experiment in all cases: co-IP; HEK293 cell lysates expressing V5-tagged SMS1, SMS2 or SMSr and 3×FLAG-tagged DGK isozymes; immunoprecipitation with anti-V5 antibody and Protein A/G PLUS-agarose; western blot with anti-FLAG and anti-V5
[1] = target: T1, SMS1‐V5 (C-terminal V5-tagged human sphingomyelin synthase 1) (human)
[2] = target: T2, SMS2‐V5 (C-terminal V5-tagged human sphingomyelin synthase 2) (human)
[3] = target: T3, SMSr‐V5 (C-terminal V5-tagged human sphingomyelin synthase-related protein) (human)

| binding [1] | binding [2] | binding [3] | Binder |
| --- | --- | --- | --- |
| no binding | no binding | binds | 3×FLAG‐DGKδ1 (enzyme, UniProt Q16760-2 1-1170) MNMFLYFQTIIKEGMLTKQNNSFQRSKRRYFKLRGRTLYYAKTAKSIIFDEVDLTDASVAESSTKNVNNSFTVITPCRKLILCADNRKEMEDWIAALKTVQNREHFEPTQYSMDHFSGMHNWYACSHARPTYCNVCREALSGVTSHGLSCEVCKFKAHKRCAVRATNNCKWTTLASIGKDIIEDADGIAMPHQWLEGNLPVSAKCTVCDKTCGSVLRLQDWRCLWCKAMVHTSCKESLLTKCPLGLCKVSVIPPTALNSIDSDGFWKASCPPSCTSPLLVFVNSKSGDNQGVKFLRRFKQLLNPAQVFDLMNGGPHLGLRLFQKFDTFRILVCGGDGSVGWVLSEIDSLNLHKQCQLGVLPLGTGNDLARVLGWGSACDDDTQLPQILEKLERASTKMLDRWSVMAYEAKLPRQASSSTVTEDFSEDSEVQQILFYEDSVAAHLSKILTSDQHSVVISSAKVLCETVKDFVARVGKAYEKTTESSEESEVMAKKCSVLKEKLDSLLKTLDDESQASSSLPNPPPTIAEEAEDGDGSGSICGSTGDRLVASACPARPQIFRPREQLMLRANSLKKAIRQIIEHTEKAVDEQNAQTQEQEGFVLGLSESEEKMDHRVCPPLSHSESFGVPKGRSQRKVSKSPCEKLISKGSLSLGSSASLPPQPGSRDGLPALNTKILYPNVRAGMSGSLPGGSVISRLLINADPFNSEPETLEYYTEKCVMNNYFGIGLDAKISLDFNNKRDEHPEKCRSRTKNMMWYGVLGTKELLHRTYKNLEQKVLLECDGRPIPLPSLQGIAVLNIPSYAGGTNFWGGTKEDDTFAAPSFDDKILEVVAVFGSMQMAVSRVIRLQHHRIAQCRTVKISILGDEGVPVQVDGEAWVQPPGYIRIVHKNRAQTLTRDRAFESTLKSWEDKQKCELPRPPSCSLHPEMLSEEEATQMDQFGQAAGVLIHSIREIAQSHRDMEQELAHAVNASSKSMDRVYGKPRTTEGLNCSFVLEMVNNFRALRSETELLLSGKMALQLDPPQKEQLGSALAEMDRQLRRLADTPWLCQSAEPGDEESVMLDLAKRSRSGKFRLVTKFKKEKNNKNKEAHSSLGAPVHLWGTEEVAAWLEHLSLCEYKDIFTRHDIRGSELLHLERRDLKDLGVTKVGHMKRILCGIKELSRSAPAVEA |
| no binding | no binding | no binding | 3×FLAG‐DGKη2 (enzyme, UniProt Q86XP1 1-1220) MAGAGGQHHPPGAAGGAAAGAGAAVTSAAASAGPGEDSSDSEAEQEGPQKLIRKVSTSGQIRTKTSIKEGQLLKQTSSFQRWKKRYFKLRGRTLYYAKDSKSLIFDEVDLSDASVAEASTKNANNSFTIITPFRRLMLCAENRKEMEDWISSLKSVQTREPYEVAQFNVEHFSGMHNWYACSHARPTFCNVCRESLSGVTSHGLSCEVCKFKAHKRCAVRATNNCKWTTLASIGKDIIEDEDGVAMPHQWLEGNLPVSAKCAVCDKTCGSVLRLQDWKCLWCKTMVHTACKDLYHPICPLGQCKVSIIPPIALNSTDSDGFCRATFSFCVSPLLVFVNSKSGDNQGVKFLRRFKQLLNPAQVFDLMNGGPHLGLRLFQKFDNFRILVCGGDGSVGWVLSEIDKLNLNKQCQLGVLPLGTGNDLARVLGWGGSYDDDTQLPQILEKLERASTKMLDRWSIMTYELKLPPKASLLPGPPEASEEFYMTIYEDSVATHLTKILNSDEHAVVISSAKTLCETVKDFVAKVEKTYDKTLENAVVADAVASKCSVLNEKLEQLLQALHTDSQAAPVLPGLSPLIVEEDAVESSSEESLGESKEQLGDDVTKPSSQKAVKPREIMLRANSLKKAVRQVIEEAGKVMDDPTVHPCEPANQSSDYDSTETDESKEEAKDDGAKESITVKTAPRSPDARASYGHSQTDSVPGPAVAASKENLPVLNTRIICPGLRAGLAASIAGSSIINKMLLANIDPFGATPFIDPDLDSVDGYSEKCVMNNYFGIGLDAKISLEFNNKREEHPEKCRSRTKNLMWYGVLGTRELLQRSYKNLEQRVQLECDGQYIPLPSLQGIAVLNIPSYAGGTNFWGGTKEDDIFAAPSFDDKILEVVAIFDSMQMAVSRVIKLQHHRIAQCRTVKITIFGDEGVPVQVDGEAWVQPPGIIKIVHKNRAQMLTRDRAFESTLKSWEDKQKCDSGKPVLRTHLYIHHAIDLATEEVSQMQLCSQAAEELITRICDAATIHCLLEQELAHAVNACSHALNKANPRCPESLTRDTATEIAINVKALYNETESLLVGRVPLQLESPHEERVSNALHSVEVELQKLTEIPWLYYILHPNEDEEPPMDCTKRNNRSTVFRIVPKFKKEKVQKQKTSSQPVQKWGTEEVAAWLDLLNLGEYKDIFIRHDIRGAELLHLERRDLKDLGIPKVGHVKRILQGIKELGRSTPQSEV |
| no binding | no binding | binds | 3×FLAG‐DGKδ2 (enzyme, UniProt Q16760-1 1-1214) MAAAAGAPPPGPPQPPPPPPPEESSDSEPEAEPGSPQKLIRKVSTSGQIRQKTIIKEGMLTKQNNSFQRSKRRYFKLRGRTLYYAKTAKSIIFDEVDLTDASVAESSTKNVNNSFTVITPCRKLILCADNRKEMEDWIAALKTVQNREHFEPTQYSMDHFSGMHNWYACSHARPTYCNVCREALSGVTSHGLSCEVCKFKAHKRCAVRATNNCKWTTLASIGKDIIEDADGIAMPHQWLEGNLPVSAKCTVCDKTCGSVLRLQDWRCLWCKAMVHTSCKESLLTKCPLGLCKVSVIPPTALNSIDSDGFWKASCPPSCTSPLLVFVNSKSGDNQGVKFLRRFKQLLNPAQVFDLMNGGPHLGLRLFQKFDTFRILVCGGDGSVGWVLSEIDSLNLHKQCQLGVLPLGTGNDLARVLGWGSACDDDTQLPQILEKLERASTKMLDRWSVMAYEAKLPRQASSSTVTEDFSEDSEVQQILFYEDSVAAHLSKILTSDQHSVVISSAKVLCETVKDFVARVGKAYEKTTESSEESEVMAKKCSVLKEKLDSLLKTLDDESQASSSLPNPPPTIAEEAEDGDGSGSICGSTGDRLVASACPARPQIFRPREQLMLRANSLKKAIRQIIEHTEKAVDEQNAQTQEQEGFVLGLSESEEKMDHRVCPPLSHSESFGVPKGRSQRKVSKSPCEKLISKGSLSLGSSASLPPQPGSRDGLPALNTKILYPNVRAGMSGSLPGGSVISRLLINADPFNSEPETLEYYTEKCVMNNYFGIGLDAKISLDFNNKRDEHPEKCRSRTKNMMWYGVLGTKELLHRTYKNLEQKVLLECDGRPIPLPSLQGIAVLNIPSYAGGTNFWGGTKEDDTFAAPSFDDKILEVVAVFGSMQMAVSRVIRLQHHRIAQCRTVKISILGDEGVPVQVDGEAWVQPPGYIRIVHKNRAQTLTRDRAFESTLKSWEDKQKCELPRPPSCSLHPEMLSEEEATQMDQFGQAAGVLIHSIREIAQSHRDMEQELAHAVNASSKSMDRVYGKPRTTEGLNCSFVLEMVNNFRALRSETELLLSGKMALQLDPPQKEQLGSALAEMDRQLRRLADTPWLCQSAEPGDEESVMLDLAKRSRSGKFRLVTKFKKEKNNKNKEAHSSLGAPVHLWGTEEVAAWLEHLSLCEYKDIFTRHDIRGSELLHLERRDLKDLGVTKVGHMKRILCGIKELSRSAPAVEA |

From article PMC10315710, “Diacylglycerol kinase ζ interacts with sphingomyelin synthase 1 and sphingomyelin synthase‐related protein via different regions” (FEBS Open Bio, 2023)
